From the supplement of paper PMC9046079
± gives the standard deviation of the averaged measurements. The list shows a part of the results.

Legend:
[1] = system: murine small intestinal organoids (ENR+CD Paneth differentiation); experiment: cellular ATP (CellTiter-Glo 3D) relative to plate median (log10 fold change); higher = more viable cells; conditions: 6 d
[2] = system: murine small intestinal organoids (ENR+CD Paneth differentiation); experiment: carbachol-stimulated secreted lysozyme activity relative to plate median (log10 fold change); higher = more Paneth cell lysozyme secretion; conditions: 6 d, carbachol 10 µM
[3] = system: murine small intestinal organoids (ENR+CD Paneth differentiation); experiment: basal (non-stimulated) secreted lysozyme activity relative to plate median (log10 fold change); higher = more Paneth cell lysozyme secretion; conditions: 6 d
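For basal (non-stimulated) secreted lysozyme activity relative to plate median in this document: ISC-enriched organoid precursors grown as 2.5D pseudo-monolayer on Matrigel, compound given on day 0 and day 3, plate values LOESS-normalized before median fold change, three murine donors.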
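For cellular ATP (CellTiter-Glo 3D) relative to plate median in this document: 2.5D pseudo-monolayer culture of ISC-enriched organoids partly embedded atop Matrigel, compound added on day 0 and again on day 3, per-plate LOESS correction before median fold change.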

SMILES	cellular ATP (log10) ([1]; 0.08 µM)	cellular ATP (log10) ([1]; 0.4 µM)	cellular ATP (log10) ([1]; 2 µM)	cellular ATP (log10) ([1]; 10 µM)	carbachol-stimulated secreted lysozyme activity (log10) ([2]; 0.08 µM)	carbachol-stimulated secreted lysozyme activity (log10) ([2]; 0.4 µM)	carbachol-stimulated secreted lysozyme activity (log10) ([2]; 2 µM)	carbachol-stimulated secreted lysozyme activity (log10) ([2]; 10 µM)	basal (log10) ([3]; 0.08 µM)	basal (log10) ([3]; 0.4 µM)	basal (log10) ([3]; 2 µM)	basal (log10) ([3]; 10 µM)
O=C(NNc1ccccc1)c1ccncc1	-0.146 ± 0.052	-0.0946 ± 0.041	-0.433 ± 0.28	-0.853 ± 0.059	0.0228 ± 0.04	-0.0439 ± 0.061	-0.173 ± 0.2	-0.445 ± 0.097	0.0827 ± 0.18	0.00447 ± 0.17	-0.107 ± 0.073	-0.284 ± 0.1
O=c1cc(N2CCOCC2)oc2c1ccc1ccccc12	0.0963 ± 0.082	0.104 ± 0.13	0.107 ± 0.11	-0.119 ± 0.37	-0.0332 ± 0.13	-0.0585 ± 0.057	-0.117 ± 0.18	-0.195 ± 0.043	0.0228 ± 0.087	0.0228 ± 0.12	-0.0582 ± 0.12	-0.158 ± 0.019
COc1ccc(C2CNC(=O)C2)cc1OC1CCCC1 (stereo not drawn) [Rolipram]	0.419 ± 0.25	0.237 ± 0.23	0.406 ± 0.14	0.279 ± 0.15	0.254 ± 0.14	0.14 ± 0.2	0.303 ± 0.35	0.149 ± 0.23	0.266 ± 0.29	0.0446 ± 0.042	0.155 ± 0.14	0.11 ± 0.1
Cc1ccc(S(=O)(=O)Cc2nc(-c3ccc(C(=O)NCc4cccnc4)cc3)oc2C)cc1	-0.634 ± 1.3	-0.986 ± 0.98	-0.561 ± 0.67	-0.702 ± 0.83	-0.388 ± 0.12	-0.141 ± 0.31	-0.106 ± 0.29	-0.196 ± 0.23	-0.168 ± 0.15	-0.0882 ± 0.15	-0.0573 ± 0.13	-0.0631 ± 0.15
CCOc1nc2cccc(C(=O)O)c2n1Cc1ccc(-c2ccccc2-c2nnn[nH]2)cc1 [Candesartan]	-0.00318 ± 0.23	-0.125 ± 0.26	-0.198 ± 0.24	-0.253 ± 0.26	-0.0495 ± 0.19	-0.0799 ± 0.02	-0.102 ± 0.19	-0.0629 ± 0.096	0.013 ± 0.16	-0.0147 ± 0.1	0.00743 ± 0.091	-0.0507 ± 0.039
Nc1ccc(C(=O)O)c(O)c1 [Sodium 4-Aminosalicylate]	0.203 ± 0.062	0.166 ± 0.25	0.0448 ± 0.11	0.221 ± 0.14	0.139 ± 0.0088	0.153 ± 0.16	0.253 ± 0.099	0.163 ± 0.083	0.0931 ± 0.032	0.0546 ± 0.036	0.0975 ± 0.12	0.172 ± 0.18
O=C1NC(=O)/C(=C/c2ccc(-c3ccc(F)cc3O)o2)S1	0.139 ± 0.072	-0.0739 ± 0.24	-0.359 ± 0.52	-0.204 ± 0.13	0.0101 ± 0.11	0.00164 ± 0.011	-0.0309 ± 0.23	0.0226 ± 0.2	0.0699 ± 0.1	-0.0422 ± 0.032	-0.0798 ± 0.078	-0.077 ± 0.0087
N#CC1(c2ccc(NC(=O)c3cccnc3NCc3ccncc3)cc2)CCCC1 [Apatinib]	0.223 ± 0.12	0.302 ± 0.058	0.27 ± 0.12	0.218 ± 0.16	0.147 ± 0.13	0.0936 ± 0.057	0.122 ± 0.16	0.148 ± 0.22	0.103 ± 0.086	0.0376 ± 0.015	0.0758 ± 0.087	0.0116 ± 0.087
CC(C)(C)c1cnc(CSc2cnc(NC(=O)C3CCNCC3)s2)o1	-0.413 ± 0.65	-0.14 ± 0.25	-0.569 ± 0.15	-0.779 ± 0.34	-0.199 ± 0.29	-0.144 ± 0.13	-0.306 ± 0.24	-0.319 ± 0.16	-0.0964 ± 0.15	-0.0928 ± 0.086	-0.192 ± 0.17	-0.216 ± 0.12
